The whole screen tested about 270,000 compounds, of which about 5,800 (2.1%) were called active. Inconclusive results, whose numbers are uncertain, are shown with a selection of clear calls. Calls come from the whole dose curve; as a rule, active = well fitted inhibition curve with a large enough effect; inconclusive = small, poorly fitted or top-dose-only effect; inactive = flat fitted curve, though single readings scatter. Potencies of inconclusive entries are doubtful fits and often do not repeat.
Biological target: Microtubule-associated protein tau (Homo sapiens) (UniProt P10636)
Assay: qHTS for Inhibitors of Tau Fibril Formation, Thioflavin T Binding; note: nearly all actives have a fitted effect of over 55% in size
Settings: recombinant tau K18 P301L (four-repeat tau fragment), heparin-induced fibrillization, ThT fluorescence; series mostly up to 57.4 µM
Outline: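 Recombinant human tau K18 fragment […] carrying P301L, 15 uM unlabeled plus 0.24 uM Alexa 594-labeled, was fibrillized with 20 uM heparin in 100 mM sodium acetate pH 7 for 6 hr at 37 C; 30 uM ThT fluorescence read after 1 hr.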
Potency is the fitted concentration of half-maximal effect; tags give direction and shape of the fitted curve.

Sequence of UniProt P10636 (P10636 whole entry, looked up): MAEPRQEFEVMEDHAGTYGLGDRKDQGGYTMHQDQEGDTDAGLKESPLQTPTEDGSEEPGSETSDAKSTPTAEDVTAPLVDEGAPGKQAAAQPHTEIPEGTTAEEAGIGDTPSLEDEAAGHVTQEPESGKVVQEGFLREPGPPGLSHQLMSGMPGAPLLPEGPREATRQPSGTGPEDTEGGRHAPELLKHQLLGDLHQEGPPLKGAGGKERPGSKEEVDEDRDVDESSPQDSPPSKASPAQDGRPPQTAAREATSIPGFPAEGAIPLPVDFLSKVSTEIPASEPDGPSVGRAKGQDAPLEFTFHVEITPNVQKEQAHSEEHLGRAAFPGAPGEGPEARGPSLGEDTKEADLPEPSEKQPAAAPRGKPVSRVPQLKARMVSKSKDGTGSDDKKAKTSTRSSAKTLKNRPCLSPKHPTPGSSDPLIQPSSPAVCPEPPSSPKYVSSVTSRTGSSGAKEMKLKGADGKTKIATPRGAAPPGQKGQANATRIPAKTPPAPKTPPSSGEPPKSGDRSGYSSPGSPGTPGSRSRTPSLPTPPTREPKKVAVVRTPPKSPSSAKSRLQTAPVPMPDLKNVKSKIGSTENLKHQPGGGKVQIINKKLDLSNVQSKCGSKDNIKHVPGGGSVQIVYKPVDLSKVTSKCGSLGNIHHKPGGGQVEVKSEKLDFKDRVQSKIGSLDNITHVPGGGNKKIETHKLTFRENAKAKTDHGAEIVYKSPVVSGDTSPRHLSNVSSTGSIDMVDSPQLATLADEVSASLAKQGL

Row | Structure (SMILES) | Potency
1 | CCc1cccc(C)c1NC(=O)C1CCN(c2nnc(C)c3c(C)n(-c4ccccc4)nc23)CC1 | inconclusive: 22.4 µM [inhibitor, single point]
2 | O=C1CC(NCc2ccncc2)C(=O)N1c1ccc(Cl)cc1 (stereo not given) | inconclusive: 2.51 µM [inhibitor, full curve, poor fit]
3 | CC(C)Cc1nn2c(=O)cc(COC(=O)c3ccccc3NC(=O)c3cccs3)nc2s1 | inactive
4 | CC1=NN(c2ccccc2)C(=O)C1C(=O)c1ccc(Cl)cc1 (stereo not given) | inconclusive: 2.82 µM [inhibitor, partial curve]
5 | COc1ccc(C2CC(=O)N3CN(c4ccc(C)c(Cl)c4)CSC3=C2C#N)cc1OC (stereo not given) | active: 14.1 µM
6 | O=C(c1cccc(C(F)(F)F)c1)c1c[nH]c(C(=O)NCC2CCCO2)c1 (stereo not given) | inactive
7 | CCN1CCc2c(sc(NC(=S)NC(=O)c3ccco3)c2C(N)=O)C1 | inconclusive: 17.8 µM [inhibitor, partial curve]
8 | CCOc1ccccc1NC(=O)C(=O)c1cc(C)n(-c2cccc(C)c2C)c1C | inconclusive: 39.8 µM [inhibitor, single point]
9 | COc1ccc(-c2noc(N3CCN(c4ccc(Cl)cc4)CC3)n2)cc1OC | inconclusive: 2.82 µM [inhibitor, full curve]
10 | CCc1nn2c(=O)cc(COC(=O)c3cccc(NC(=O)COc4ccccc4)c3)nc2s1 | inconclusive: 0.708 µM [inhibitor, full curve]
11 | COC(=O)c1ccc(OC(=O)CCN2c3ccccc3Sc3ccccc32)cc1 | inconclusive: 6.31 µM [inhibitor, partial curve]
12 | CCOc1ccc(CCNC(=O)c2cc3cc4cc(OC)ccc4nc3s2)cc1OCC | inconclusive: 4.47 µM [inhibitor, full curve, poor fit]
13 | COc1cccc(NC(=O)CCSc2nc(-c3ccco3)cc(C(F)(F)F)n2)c1 | inactive
14 | CC(C)/C(=N\NS(=O)(=O)c1ccc(Br)cc1)c1cccs1 | inactive
15 | Cc1ccccc1NC(=S)NCCc1ccccn1 | inactive
16 | Cc1nc(CN2CCC(c3ccccc3)CC2)cc(=O)[nH]1 | inactive
17 | Cc1ccc(OCC(=O)Nc2cccc(O)c2)cc1C | inactive
18 | CCN(CC)CCn1c(-c2ccccc2)nc2c(NCCOC)nc(C)nc21 | inactive
19 | COc1cccc(-c2nnc(SCC(=O)OC(C)C)n2Cc2ccco2)c1 | inactive
20 | Cc1ccc(-c2nc(CSCC(=O)N3CCN(C(=O)c4ccco4)CC3)c(C)o2)cc1 | inconclusive: 20 µM [inhibitor, partial curve]
21 | O=C(NCC(c1cccnc1)N1CCN(c2ccccc2F)CC1)OCc1ccccc1 (stereo not given) | inconclusive: 22.4 µM [inhibitor, partial curve]
22 | O=S(=O)(c1ccc(NC(=S)NN=C(Cc2ccccc2)Cc2ccccc2)cc1)N1CCOCC1 | inconclusive: 22.4 µM [inhibitor, partial curve]
23 | Cc1ccc(NC(=O)/C(C#N)=C\c2ccc(-c3ccc(Cl)cc3)o2)c(C)c1 | inconclusive: 1 µM [inhibitor, full curve]

Row | Structure (SMILES) | Potency
24 | O=C(Nc1ccccc1F)Nc1ccccc1F | inactive
25 | CN(C)c1cccc(NC(=O)c2ccco2)c1 | inconclusive: 10 µM [inhibitor, partial curve]
26 | CCOC(=O)C(CCCCCOc1ccc([N+](=O)[O-])cc1)C(=O)OCC | inconclusive: 15.8 µM [inhibitor, partial curve]
27 | CCc1nc(SCC(=O)N2CCCc3ccccc32)c2oc3ccccc3c2n1 | inconclusive: 10 µM [inhibitor, partial curve, poor fit]
28 | Cc1cc2cc(CCNS(=O)(=O)c3ccc(Br)cc3)c(=O)[nH]c2cc1C | inconclusive: 20 µM [inhibitor, partial curve]
29 | COc1ccccc1-c1ccc(Nc2cccc(C(C)=O)c2)nn1 | inconclusive: 28.2 µM [inhibitor, partial curve]
30 | O=C(CCCc1nc(-c2ccccc2)no1)NCc1cccnc1 | inactive
31 | CCOc1ccc(-c2c(C)nn3c(C)c(C(=O)Nc4cccc(Cl)c4C)cnc23)cc1OCC | inconclusive: 15.8 µM [inhibitor, partial curve]
32 | O=c1cc(N2CCc3ccccc32)[nH]c(=O)n1-c1ccc(Cl)cc1 | inconclusive: 39.8 µM [inhibitor, single point]
33 | CCNc1nc(NCC)n2c(SCc3ccc(F)cc3)nnc2n1 | inactive
34 | CCOC(=O)CCn1c(=O)c2cccn2c2cccnc21 | inactive
35 | CSc1nn(Cc2ccccc2C)c(NC(C)=O)c1S(=O)(=O)c1ccc(C)cc1 | inactive
36 | CCOC(=O)c1c(C2CC2)csc1NC(=O)CSCc1c(C)noc1C | inconclusive: 10 µM [inhibitor, partial curve]
37 | COc1ccc(CCn2c(=S)[nH]c3cc(C(=O)NCc4ccco4)ccc3c2=O)cc1OC | inconclusive: 14.1 µM [inhibitor, partial curve]
38 | COc1cc2oc(=O)c(CC(=O)NCCc3ccccc3)c(C)c2cc1Cl | inactive
39 | CN1C(=O)C(O)(CC(=O)c2ccccc2O)c2cc(Br)ccc21 (stereo not given) | inconclusive: 35.5 µM [inhibitor, single point]
40 | O=C(CNCc1cccs1)Nc1ccc(N2CCCCCC2)cc1 | inconclusive: 15.8 µM [inhibitor, partial curve]
41 | CC1=NN(c2ccc(C)c(C)c2)C(=O)/C1=C\C=C\c1ccc([N+](=O)[O-])o1 | active: 25.1 µM
42 | O=C(Cc1ccc(Cl)cc1)Nc1ccc(N2CCCC2)cc1 | inconclusive: 7.94 µM [inhibitor, partial curve]
43 | COc1ccc(NC2SC(=O)N(CC(=O)O)C2=O)cc1 (stereo not given) | inconclusive: 20 µM [inhibitor, partial curve]
44 | CCCCC[n+]1ccn(C2=C([O-])c3ccccc3C(=O)/C2=N\S(=O)(=O)c2ccccc2)c1 | inconclusive: 17.8 µM [inhibitor, partial curve]
45 | O=C1CCCc2c1cc(C(=O)Nc1ccc(Br)cn1)c(=O)n2-c1ccccc1 | inconclusive: 35.5 µM [inhibitor, single point]
